# From PubChem BioAssay AID504332 (National Center for Advancing Translational Sciences (NCATS), 2011)
# Where “and” joins values, the source holds several entries; their conditions need not be identical. Equal entries are not always repeated. In all, about 350,000 compounds went through this assay and about 31,000 (8.9%) were called active. The inconclusive results got no clear call from the source; some entries with a clear call stand among them for comparison. Calls come from the whole dose curve; as a rule, active = well fitted inhibition curve with a large enough effect; inconclusive = small, poorly fitted or top-dose-only effect; inactive = no such curve, though single readings can be large or run the other way. Where the call is inconclusive, the potency comes from a doubtful curve fit.
# Target: Histone-lysine N-methyltransferase EHMT2 (Homo sapiens) (UniProt Q96KQ7)
# Sequence of UniProt Q96KQ7 (Q96KQ7 whole entry, looked up): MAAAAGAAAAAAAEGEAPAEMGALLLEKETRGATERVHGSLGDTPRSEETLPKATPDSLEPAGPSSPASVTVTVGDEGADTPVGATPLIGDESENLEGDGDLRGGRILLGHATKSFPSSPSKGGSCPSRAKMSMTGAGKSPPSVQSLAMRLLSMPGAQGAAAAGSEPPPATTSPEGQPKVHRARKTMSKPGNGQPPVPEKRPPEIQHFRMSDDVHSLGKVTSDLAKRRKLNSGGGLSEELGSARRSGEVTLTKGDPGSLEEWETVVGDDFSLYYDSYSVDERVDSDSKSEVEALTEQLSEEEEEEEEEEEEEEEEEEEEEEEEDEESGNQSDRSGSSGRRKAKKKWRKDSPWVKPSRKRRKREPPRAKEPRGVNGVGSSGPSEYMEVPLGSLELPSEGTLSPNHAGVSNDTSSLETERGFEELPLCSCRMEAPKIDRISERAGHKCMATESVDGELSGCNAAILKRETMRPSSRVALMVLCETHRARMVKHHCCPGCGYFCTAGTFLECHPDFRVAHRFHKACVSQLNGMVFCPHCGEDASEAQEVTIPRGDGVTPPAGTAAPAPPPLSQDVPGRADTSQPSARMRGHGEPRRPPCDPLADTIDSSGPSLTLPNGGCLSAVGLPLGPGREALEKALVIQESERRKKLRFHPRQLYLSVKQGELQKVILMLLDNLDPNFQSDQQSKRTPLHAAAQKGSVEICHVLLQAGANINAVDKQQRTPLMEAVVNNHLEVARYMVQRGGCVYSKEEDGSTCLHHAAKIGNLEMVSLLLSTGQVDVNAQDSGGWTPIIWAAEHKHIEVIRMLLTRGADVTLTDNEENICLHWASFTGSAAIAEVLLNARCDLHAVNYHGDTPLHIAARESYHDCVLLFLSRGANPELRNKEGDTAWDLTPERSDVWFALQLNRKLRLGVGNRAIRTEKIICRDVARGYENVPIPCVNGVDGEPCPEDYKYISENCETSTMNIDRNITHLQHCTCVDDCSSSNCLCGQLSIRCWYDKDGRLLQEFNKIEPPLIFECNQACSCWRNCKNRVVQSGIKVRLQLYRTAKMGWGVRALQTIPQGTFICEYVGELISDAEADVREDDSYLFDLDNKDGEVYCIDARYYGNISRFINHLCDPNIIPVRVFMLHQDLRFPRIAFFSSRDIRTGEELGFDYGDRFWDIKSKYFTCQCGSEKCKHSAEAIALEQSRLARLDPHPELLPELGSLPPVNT
# Assay: qHTS Assay for Inhibitors of Histone Lysine Methyltransferase G9a; note: nearly all actives have a fitted effect of over 75% in size
# Conditions: G9a H3K9 monomethylation, AlphaScreen, 2 h; activity, negative = inhibition: at 59 µM (top of the series) unless noted
# Method in brief: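 AlphaScreen read-out: biotin-H3K9 peptide (500 nM) methylation by 20 nM enzyme with 20 uM SAM, 2 h at room temperature after 15 min compound preincubation; anti-monomethyl H3K9 antibody plus donor/acceptor beads, 10 min dark.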
# % is set by controls: 0 for no effect and ±100 for the full control effect; potency is the fitted concentration of half-maximal effect; tags give direction and shape of the fitted curve.
SMILES,Potency,"activity, negative = inhibition"
O=C(c1ccc(Br)cc1)C1CCc2occc2C1=O (centres undefined),"inconclusive: 2.24 µM [inhibitor, partial curve, poor fit]",
Cn1nnnc1SCC(=O)Nc1ccc(S(=O)(=O)N2CCOCC2)cc1,"inconclusive: 17.8 µM [inhibitor, full curve]",
CCOC(=O)c1cnc2c(F)ccc(F)c2c1Sc1ccccc1,"inconclusive: 44.7 µM [inhibitor, partial curve, poor fit]",
O=C(CCCSc1ccccc1)Nc1nc(-c2ccccn2)cs1,"inconclusive: 39.8 µM [inhibitor, single point]",
CCOC(=O)C(C(=O)OCC)c1cc(Br)c2noc3c2c1C(=O)c1ccccc1-3,active: 2.51 µM,
O=C(O)CC(SCC(=O)Nc1ccc(S(=O)(=O)N2CCCC2)cc1)C(=O)O (centres undefined),"inconclusive: 89.1 µM [inhibitor, single point]",
CC(C)C[C@H](N)c1nnc(S(=O)(=O)Cc2cccc(F)c2)o1,"inconclusive: 1.26 µM [inhibitor, partial curve, poor fit]",
CCNc1nc(NC(C)CC)nc(Oc2ccc(OCC)nn2)n1 (centres undefined),inactive,
CCc1cccc(C)c1NC(=O)NC1COc2ccccc2C1 (centres undefined),inactive,
O=C(Nc1ccsc1C(=O)O)c1ccccc1,"inconclusive: 79.4 µM [inhibitor, single point]",
COc1cccc(NC(=O)Nc2nc(-c3ccc(OC)c(OC)c3)cs2)c1,"inconclusive: 31.6 µM [inhibitor, single point]",
O=C(C1CCN(S(=O)(=O)c2cnc[nH]2)CC1)N(CCc1ccccc1)Cc1ccccc1,inactive,
COc1ccccc1CN(Cc1ccco1)c1cnc(S(C)(=O)=O)nc1C(=O)Nc1ccccc1Cl,inactive,
CSc1ccc(/C=C(\C(=O)O)c2ccc(S(=O)(=O)N3CCCCC3)s2)cc1,"inconclusive: 28.2 µM [inhibitor, single point]",
COc1ccc(CN2CCN(C(=O)c3ccc(S(=O)(=O)N4CCCCCC4)cc3)CC2)cc1,"inconclusive: 79.4 µM [inhibitor, partial curve, poor fit]",
COc1ccc(C2CC(c3ccccc3)=NN2C(=O)COC(=O)c2cnc(Cl)c(Cl)c2)cc1 (centres undefined),"inconclusive: 12.6 µM [inhibitor, partial curve]",
CN1CCN(/N=C/c2nc(-c3ccccc3Cl)n3ccccc23)CC1,active: 28.2 µM,
COC(=O)C1=C(C)N(c2ccc(OC)c(OC)c2)C(=O)/C1=C\c1ccco1,,inconclusive: -89.2% [inhibitor] [at 102 µM]
COc1cc(O)c(C(CCN2CCCC2)c2ccc(N(C)C)cc2)c(OC)c1 (centres undefined),"inconclusive: 11.2 µM [inhibitor, single point]",
CC(C)(C)S(=O)(=O)c1c(C(=O)O)cccc1C(=O)O,"inconclusive: 89.1 µM [inhibitor, single point]",
COc1ccc(NCc2cc3cc4c(cc3n(CC(=O)Nc3ccccc3)c2=O)OCO4)cc1,"inconclusive: 7.08 µM [inhibitor, full curve]",
O=C(O)/C(=C\c1cccc([N+](=O)[O-])c1)c1ccc(S(=O)(=O)N2CCCCC2)s1,"inconclusive: 56.2 µM [inhibitor, partial curve]",
COc1ccccc1N1CCN(C(=O)CCCCn2c(=O)[nH]c3ccsc3c2=O)CC1,"inconclusive: 89.1 µM [inhibitor, single point]",

SMILES,Potency,"activity, negative = inhibition"
Fc1ccccc1Nc1nc2c(s1)CCc1ccccc1-2,active: 6.31 µM,
Cc1c(C(=O)Nc2nc3ccccc3[nH]2)oc2c(Cl)cccc12,"inconclusive: 39.8 µM [inhibitor, single point]",
Cc1cccn2c(=O)c3cc(S(=O)(=O)c4ccccc4)c(=N)n(CC4CCCO4)c3nc12 (centres undefined),"inconclusive: 89.1 µM [inhibitor, single point]",
O=C(NC(=S)Nc1cccc(Cl)c1N1CCCCC1)c1cccs1,inactive,
Cc1ccc(C)c(N2CCN(C(=O)C3CCCN(S(=O)(=O)c4cccc5nonc45)C3)CC2)c1 (centres undefined),"inconclusive: 17.8 µM [inhibitor, single point]",
CN1CCN(c2ncnc3sc(-c4ccccc4)cc23)CC1,"inconclusive: 20 µM [inhibitor, partial curve, poor fit]",
Cc1ccc(-c2cc(C(=O)Nc3c(C(=O)c4ccc(C)c(F)c4)oc4ccccc34)no2)cc1,inactive,
CCc1noc(C)c1C(=O)Nc1ccccc1C(C)(C)C,inactive,
C[C@](N)(Cc1ccc(O)c(O)c1)C(=O)O,active: 1.41 µM and active: 2.51 µM and active: 447 nM,
COC(=O)CNC(=O)CSc1nnc(C)c(=O)[nH]1,inactive,
COc1ccc(C(=O)NC2CCSc3ccccc32)cc1S(=O)(=O)N1CCOCC1 (centres undefined),,inactive: 8.29% [at 0.501 µM]
Cc1ccc(Cn2c(CN3CCC(C(=O)NCC(C)c4ccccc4)CC3)cc3ccccc32)cc1 (centres undefined),inactive,
Cn1c(SCC(=O)NC2CC2)nnc1-c1ccccc1,inactive,
O=C(O)c1ccc2c(c1)C1C=CCC1C(c1ccncc1)N2 (centres undefined),"inconclusive: 3.55 µM [inhibitor, single point]",
CCN(CC)CCOC(=O)c1ccc(NC(=O)c2cc3cccc(OC)c3oc2=O)cc1,"inconclusive: 1.41 µM [inhibitor, partial curve, poor fit]",
COC(=O)CSc1nc2c(c(-c3ccc(O)cc3)c1C#N)CCCC2,"inconclusive: 70.8 µM [inhibitor, single point]",
CC(C)(C)NS(=O)(=O)c1ccc2nc(NC(=O)Cc3cccs3)sc2c1,"inconclusive: 70.8 µM [inhibitor, partial curve]",
O=C(NCCc1cn2ccccc2n1)C1CCCCC1,"inconclusive: 39.8 µM [inhibitor, partial curve]",
COc1ccc(Cn2nnnc2C(c2ccc(N(C)C)cc2)N2CCC(C)CC2)cc1 (centres undefined),inactive,
CCn1c(O)c(N=NC(=O)c2ccc(CSc3nncn3C)cc2)c2ccccc21,"inconclusive: 11.2 µM [inhibitor, partial curve]",
O=C(Nc1ccc(NC(=S)NC(=O)c2ccccc2F)cc1)c1cccs1,"inconclusive: 22.4 µM [inhibitor, partial curve, poor fit]",
COc1ccc(S(=O)(=O)NCCc2sc(-c3ccccc3)nc2C)cc1F,inactive,
Cc1sc2nc(CSc3nnnn3-c3ccc(Cl)cc3)[nH]c(=O)c2c1C,"inconclusive: 79.4 µM [inhibitor, single point]",

SMILES,Potency,"activity, negative = inhibition"
O=C(CNC(=O)c1ccc(Br)o1)NCc1ccccc1Cl,inactive,
Cc1ccc(C)c(NS(=O)(=O)c2ccc(OCC(=O)N3CCOCC3)cc2)c1,"inconclusive: 35.5 µM [inhibitor, single point]",
CNC(=O)c1ccc(Nc2nnc(-c3ccc(C)c(S(=O)(=O)NCC4CCCO4)c3)c3ccccc23)cc1 (centres undefined),"inconclusive: 8.91 µM [inhibitor, full curve, poor fit]",
COc1ccccc1N1CCN(C(=O)CSc2nnc3n2C(C)(C)Cc2ccccc2-3)CC1,"inconclusive: 79.4 µM [inhibitor, single point]",
COc1cc2c(C(=O)N3CCN(C4CCCCC4)CC3)cn(CC(C)C)c(=O)c2cc1OC,,inconclusive: -56.7% [inhibitor]
O=C(C[n+]1cccc(C(=O)N/N=C/c2cccc([N+](=O)[O-])c2)c1)c1ccccc1,active: 50.1 µM,
CCOC(=O)c1ccc(N2C(=O)Cc3ccccc3C2=O)cc1,"inconclusive: 89.1 µM [inhibitor, single point]",
COc1ccc([N+](=O)[O-])cc1NC(=O)CSCc1ccc(Br)cc1,"inconclusive: 22.4 µM [inhibitor, single point]",
O=C(O)C(Cc1c[nH]c2ccccc12)NS(=O)(=O)c1ccc(Cl)cc1 (centres undefined),"inconclusive: 79.4 µM [inhibitor, single point]",
Cc1cccc(C(=O)N2CCCC(Nc3ccc(C(C)C)cc3)C2)n1 (centres undefined),active: 56.2 µM,
CCCCCCCNC1=CC(=O)CC(c2ccco2)C1 (centres undefined),"inconclusive: 39.8 µM [inhibitor, single point]",
CNC(=O)c1c(NC(=O)C2=COCCO2)sc2c1CCCC2,"inconclusive: 25.1 µM [inhibitor, partial curve, poor fit]",
CNC(=S)Nc1ccc2nc(C)oc2c1,"inconclusive: 7.94 µM [inhibitor, single point]",
COC1=CC(=O)CC(C)C12Oc1cc(OC)cc(OC)c1C2=O (centres undefined),,inconclusive: -51.9% [inhibitor]
COc1cc2c(cc1OC)CN(C(=S)NC(=O)c1ccccc1)CC2,inactive,
COc1cc(/C=C2/C(=O)NN(c3cccc(C)c3)C2=O)cc([N+](=O)[O-])c1O,active: 35.5 µM,
C/C(=N/NC(=O)c1ccoc1C)c1ccc(NC(=O)c2ccncc2)cc1,"inconclusive: 39.8 µM [inhibitor, single point]",
CCOc1ccccc1CSc1nc2ccccc2[nH]1,inactive,
COc1cc(NS(=O)(=O)c2ccc(NC(=O)c3ccc(OC)c(Br)c3)cc2)nc(OC)n1,"inconclusive: 39.8 µM [inhibitor, single point]",
COC(=O)Nc1ccc(NC(C)=O)cc1,inactive,
CCc1ccc(S(=O)(=O)n2ccnc2)cc1,inactive,
COc1ccc(OC)c(-n2c(-c3ccc(C)cc3)n[nH]c2=S)c1,"inconclusive: 0.708 µM [inhibitor, full curve, poor fit]",
COC(=O)CN=Cc1c(O)n(-c2ccc(Cl)cn2)c(=O)c2ccccc12,inactive,
